Measured values as given in ChEMBL document CHEMBL4888484, “Replenishing the malaria drug discovery pipeline: Screening and hit evaluation of the MMV Hit Generation Library 1 (HGL1) against asexual blood stage Plasmodium falciparum ,using a nano luciferase reporter read-out” (2022).
The campaign covered roughly 150,000 compounds. About 540 (0.36%) showed an effect of 50% or more. The list shows a part of the results.

What follows are compounds tested on Plasmodium falciparum (assay: Primary screen in NF54 nanoGlo assay, in single point, at 2uM, 72h; a lower Z score goes with more inhibition). Conditions: timepoint 72 hour.
Assay type: functional, Erythrocyte

| Compound | % Inhibition [%] | Z score |
| --- | --- | --- |
| CCN1CCN(C(=O)CCc2ccccc2)c2cccnc21 | 6 | -0.67 |
| COc1ccc(CC(=O)NC[C@H]2Cc3cc(C)cc(-c4cc(C(C)=O)ccc4F)c3O2)cc1OC | 18 | -2.31 |
| Cc1ccccc1CS(=O)(=O)[C@@H](C)C(=O)NC(C)(C)C | -3 | 0.56 |
| CCN(CCc1ccccc1)C(=O)c1conc1C1CC1 | -13 | 1.72 |
| Cc1nn(C)c(Cl)c1C(=O)N1CCC(C(=O)Nc2ccc3c(c2)OCO3)CC1 | 0 | 0.02 |
| CC(CC1CCCC1)C(=O)NC(C)c1nnc2c(=O)[nH]ccn12 (stereo not given) | 0 | -0.08 |
| Cc1ccc(CC(=O)N2CCC[C@H]2c2ccncc2)s1 | 4 | -0.3 |
| CC(O)CC1CCCCN1C(=O)Cc1cnn(C)c1 (stereo not given) | 5 | -0.72 |
| Cc1ncc(Cl)c(C(=O)N2CCC[C@H](c3noc(C(C)C)n3)C2)n1 | -5 | 0.6 |
| CCCC(C(=O)NC1CCc2c(O)cccc21)N1CCN(C(=O)OC(C)(C)C)CC1 (stereo not given) | -9 | 1.51 |
| CC1(C)CN(C(=O)NCCc2cnc3c(Cl)cnn3c2)CCc2ccccc21 | -15 | 1.27 |
| C[C@@H]1CC(=O)N[C@H](C(=O)NCCn2cnnc2C2CC2)C1 | 15 | -1.94 |
| CC(C)N(CC(=O)Nc1nccs1)Cc1ccccn1 | 65 | -10.08 |
| COC(=O)c1cc(CN(C)[C@@H](C)c2cccc(O)c2)c[nH]1 | -5 | 0.55 |
| C[C@@H](c1ccc(C(=O)NCc2nc(-c3ccccn3)no2)o1)N1CCCCC1 | -7 | 1.13 |
| O=C(c1nc2ccccc2[nH]c1=O)N1CCC(c2nccn2CC2CC2)CC1 | -2 | 0.18 |
| CCCCc1nc(CN2CCC(C(=O)O)(n3cccn3)CC2)c[nH]1 | 2 | -0.37 |
| CCCc1n[nH]cc1C(=O)N1CCC2(CCCO2)CC1 | -6 | 0.54 |
| CCc1nnc(N2CCCN(C(=O)[C@@H]3CCCO3)CC2)o1 | 0 | 0.03 |
| O=C(NCC1(O)CCC1)Nc1cccc2ccsc12 | 23 | -2.66 |
| CC(OC(=O)C(C)N1C(=O)C2CCCCC2C1=O)C(=O)Nc1ccc(N2CCCCC2)cc1 (stereo not given) | -11 | 1.46 |
| O=C(COc1ccc(Cl)cc1)N1CCN(c2ncc(F)cn2)C(=O)C1 | -8 | 1.3 |

| Compound | % Inhibition [%] | Z score |
| --- | --- | --- |
| CN1CCC(N2CCN(Cc3ccc(Cl)o3)CC2)CC1 | -2 | 0.38 |
| Cn1nccc1C(=O)NCCCc1nc2c(s1)CCCC2 | 9 | -1.11 |
| CCN1C(=O)c2ccccc2Oc2ccc(C(=O)Nc3ccc(C(F)(F)F)cc3)cc21 | 4 | -0.79 |
| CC(C)(C)CN(CC(=O)O)C(=O)Cc1ccccc1F | -9 | 1.82 |
| Oc1ccc(Cl)cc1-c1nc2ccc(-c3ccc(C(F)(F)F)cc3)cc2o1 | -12 | 1.72 |
| CCCCS(=O)(=O)N1CCC2(CCC(N3CCc4ccccc4C3)CC2)CC1 | 23 | -2.99 |
| COC1CC(N(C)S(=O)(=O)c2ccc3[nH]c(=O)cnc3c2)C12CCC2 (stereo not given) | -5 | 1.02 |
| CCN(Cc1ccc(C)o1)C(=O)N[C@@H](C)CN1CCCC1 | 1 | -0.09 |
| CC[C@H](OC)C(=O)N1CCOc2ccc(Br)cc2C1 | -14 | 2.19 |
| Cc1ccc(-c2c[n+](-c3ccc(OC(F)F)cc3)c3n2CCCCC3)cc1 | 66 | -12.11 |
| CCc1nc(N(CCC(=O)N2CCOCC2)CCc2ccccc2)c2cc(Cl)cc(Cl)c2n1 | -3 | 0.28 |
| FC(F)COc1ccccc1NCC[C@H]1CCCO1 | 7 | -0.95 |
| CCN(CC)CCn1c(-c2ccccc2)cn2c3ccccc3nc12 | -8 | 0.7 |
| CC1(C)NC(=O)N(CC(=O)Nc2cccc(N3CCCC3=O)c2)C1=O | -16 | 1.44 |
| CCc1onc(C)c1CN1CCC(c2nc(C)c(C)[nH]2)CC1 | -3 | 0.39 |
| Cc1nc(N2CCC(C(=O)NCC3CC3)CC2)nc2cc(S(C)(=O)=O)ccc12 | 19 | -2.46 |
| O=C(NCCN1CCCC1)c1ccnc(N2CCN[C@H](c3ccccc3)C2)c1 | -12 | 1.25 |
| CCOc1ccccc1C(=O)NCC1CCN(Cc2ccco2)CC1 | -19 | 2.98 |
| O=C1N[C@@H](CNC(=O)c2ccccc2F)CO1 | -10 | 1.19 |
| CCN1CCC[C@H](Nc2ncnc3c2cnn3C)C1 | -11 | 2.23 |
| COc1cc(-c2ccnc3nc(C4CCCCC4)nn23)cc(OC)c1OC | -8 | 1.55 |
| CCn1cc(-c2ccc(F)cc2)cc1C(=O)N[C@@H](C)c1cccnc1 | -1 | 0.09 |

| Compound | % Inhibition [%] | Z score |
| --- | --- | --- |
| Cc1cc(=O)c(OCC(=O)N2CCC(NC(=O)OC(C)(C)C)CC2)cn1C | -15 | 1.65 |
| COc1ccccc1N[C@H](c1ccccn1)c1c(C)[nH]c2ccc(NC(=O)c3ccc(C)cc3)cc12 | -2 | 0.37 |
| COC(=O)[C@H](N)c1ccc(C(C)(C)C)cc1 | -13 | 1.3 |
| O=C(NCc1cccs1)[C@@H]1Cc2[nH]cnc2C2(CCCC2)N1 | -9 | 1.4 |
| CCn1c(C)c(-c2nc(C3CC3)no2)c(S(=O)(=O)N2CCC(C)CC2)c1C | -8 | 1.58 |
| O=C(c1ccsc1)N1CCN([C@H]2CCOC2)CC1 | -9 | 1.78 |
| O=C(Nc1ccc(S(=O)(=O)Nc2cnc3ccccc3n2)cc1)c1ccc(Cl)cc1Cl | -8 | 1.1 |
| C[C@@H](CNc1ncccc1Cl)Cn1ccnc1 | -13 | 1.43 |
| NC(=O)[C@]12CCC[C@H]1CN(C(=O)NC(C1CCCC1)C(F)(F)F)C2 (stereo not given in full) | -4 | 0.62 |
| CC(C)C[C@H](C)n1nccc1NC(=O)CN1CCC(=O)NC1=O | -6 | 1.19 |
| CN(C)C[C@@H]1CN(c2nccc(C3CCCC3)n2)C[C@@H]1CO | -11 | 1.87 |
| N#Cc1cccc(S(=O)(=O)N2CCCCCCC2)c1 | 4 | -0.83 |
| CO[C@@H]1CS(=O)(=O)[C@H]2CN(C(=O)NCc3cnc(C(F)(F)F)nc3)C[C@@H]12 | 2 | -0.37 |
| C[C@H]1Cc2cnccc2N1S(=O)(=O)c1ccc2c(c1)OCC(=O)N2 | 0 | 0.02 |
| CCc1ccc2nc(C)c(CN(Cc3ccccc3)Cc3ccccc3)c(O)c2c1 | -8 | 1.44 |
| COC[C@@H]1CCCN1CCN1CCN(c2ccccc2)CC1 | -1 | 0.25 |
| C#C[C@H](C)NS(=O)(=O)c1cccc(C)c1Br | 0 | -0.01 |
| Cc1ccc(-c2nsc(NC(=O)COc3ccccc3)n2)s1 | 2 | -0.31 |
| COc1ccccc1-n1nc(CN(C(=O)CC(C)C)C2CC2)c2c1CCN(Cc1ccccc1F)C2 | -8 | 0.75 |
| O=C(c1ccccc1)N(Cc1ccc(-c2cccc(Cl)c2)o1)[C@H]1CCS(=O)(=O)C1 | -11 | 2.08 |
| CC(=O)Nc1noc2nc(C)cc(C)c12 | 28 | -3.12 |
| NS(=O)(=O)c1ccc(F)cc1Br | -5 | 0.62 |

| Compound | % Inhibition [%] | Z score |
| --- | --- | --- |
| CCCN1CCC[C@H]1CNC(=O)c1nc(C)[nH]c1C | -9 | 1.49 |
| Cc1c(Cc2c(Cl)cccc2Cl)c(=O)ccn1-c1ccc(OCc2ccccc2)cc1 | -15 | 2.16 |
| Cc1cc(=O)[nH]c(CCNc2cc(OC(C)C)nc(N)n2)n1 | 2 | -0.42 |
| CO[C@H]1CCC[C@@H]1NC(=O)c1cc2ccccc2[nH]1 | 6 | -0.78 |
| Cc1cc2nc(C(=O)NCCc3c[nH]cn3)cc(C)n2n1 | 7 | -0.94 |
| C[C@H](NC(=O)c1ccccc1)C(=O)NCC1(N2CCOCC2)CCCCC1 | -4 | 0.39 |
| NC(=O)c1ccc[n+](Cc2ccc(-c3ccccc3)cc2)c1 | -5 | 1 |
| Cc1nn(C)cc1Cn1ccnc1-c1ccnc2ccccc12 | -2 | 0.23 |
| O=C(Cc1ccc(-n2cnnc2)cc1)N1CCC2(CC1)OCCc1ccsc12 | -4 | 0.87 |
| O=C(NC(c1ccccc1)c1ccccc1)c1cc2n(n1)CCN(Cc1c(F)cccc1Cl)C2=O | -10 | 1.08 |
| O=C(C[C@H]1CNCCO1)Nc1ccccc1C(=O)NCc1ccccn1 | -17 | 2.46 |
| CN(C)CCO[C@H]1C[C@@H](O)C12CCN(Cc1nc3c(s1)CCCC3)CC2 | -10 | 0.96 |
| CCc1cnccc1C(=O)O[C@@H](C)Cc1cccnc1 | -13 | 1.45 |
| NC(=O)N1CCC[C@H](Nc2ccnc(Cc3ccccc3)n2)C1 | -10 | 1.64 |
| CC[C@H](NS(=O)(=O)c1cn[nH]c1)C1CC(O)C1 (stereo not given in full) | 0 | 0.05 |
| O=C(NCc1ccsc1)C1(C(=O)NCc2ccsc2)CCC1 | 0 | 0.02 |
| Cc1cc(C(=O)Nc2c(C)cnn2C2CCCC2)no1 | -6 | 0.6 |
| COc1cnc(NC(=O)N2CC[C@@]3(CCCN(C)C3)C2)s1 | -7 | 1.47 |
| CC1(C)C(=O)NCCN1C(=O)CCC1CCNCC1 | -5 | 0.67 |
